Source: PubChem BioAssay AID463173 (ICCB-Longwood Screening Facility, Harvard Medical School, 2010)
Out of some 52,000 compounds screened, about 1,700 (3.3%) were called active. Cut-off read from the data, not from the text of the source: active = survival mostly below about 52% (no sharp cut-off); inactive = mostly above about 56%. This is one part of the list.

tested on: Wild type; assay: S. aureus survival, RN4220 and DeltatarO strains – OD600, teichoic acid synthesis inhibitors, primary screen (AID 463173); settings: S. aureus RN4220 wild type/DeltatarO growth, OD600, 18 h, active compounds read low, screened at 18.75 µg/mL (by protocol)

| SMILES | survival |
| --- | --- |
| COc1ccc(C2C=C(c3ccccc3)Nc3nc(NS(=O)(=O)c4ccccc4)nn32)cc1 (configuration not stated) | inactive: 29% |
| Cc1nc2c(c(C)c1CCC(=O)N1CCN(c3ccccc3)CC1)c(=O)n(C)c(=O)n2C | inactive: 118% |
| COc1ccc(CCNC(=O)C2CC(=O)N(CCc3ccccc3)C2)cc1OC (configuration not stated) | inactive: 121% |
| O=C(Nc1cccc(Cl)c1Cl)c1cc(S(=O)(=O)N2CCCCC2)ccc1F | inactive: 64% |
| COc1cccc(NC(=O)c2c(-c3ccc(C)cc3)nnc3ccccc23)c1 | inactive: 74% |
| Cc1ccc(C)c(Cn2c(=O)n(-c3ccc(Cl)cc3)c(=O)c3c4c(sc32)CCC4)c1 | inactive: 135% |
| COc1ccc(OC)c(S(=O)(=O)NCCc2sc(-c3cccnc3)nc2C)c1 | inactive: 72% |
| CC(=O)OC1=CN(Cc2ccccc2)S(=O)(=O)c2ccccc21 | inactive: 77% |
| CCCCN1CC(c2nc3ccccc3n2CCCCOc2ccccc2C)CC1=O (configuration not stated) | active: 15% |
| Cc1ccc(-c2onc(C)c2C)cc1S(=O)(=O)NCc1cccs1 | inactive: 119% |
| COc1ccccc1N1CCN(c2nc3ccc(C(=O)c4ccccc4)cc3n3c(C)nnc23)CC1 | inactive: 64% |
| CCc1nn(CC(=O)Nc2ccc(C)c(F)c2)c(=O)c2cc3cc(C)ccc3n12 | inactive: 109% |
| COc1ccc(OC)c(CNC(=O)C2CCN(S(=O)(=O)N3CCCCC3)CC2)c1 | inactive: 63% |
| CCCN(Cc1cccs1)C(=O)Nc1cc(C)ccc1OC | inactive: 83% |
| O=C(c1ccc2c(c1)N(Cc1ccc(Cl)cc1)C(=O)c1ccccc1S2(=O)=O)N1CCCCCC1 | inactive: 96% |
| Cc1cccc(C)c1Nc1c(-c2ccccc2Cl)nc2cnccn12 | inactive: 123% |
| O=C(COc1ccc(F)cc1)Nc1ccc2nc(SCC(=O)N3CCCC3)sc2c1 | inactive: 105% |
| CCOc1ccc(NC(=O)C2CCN(C(=O)Cc3ccccc3)CC2)cc1 | inactive: 101% |
| COc1ccccc1N1CCN(C2C(=O)c3ccccc3N2C(C)=O)CC1 (configuration not stated) | inactive: 66% |
| Cc1ccc(-c2cn3c(n2)sc2cc(C(=O)NCCC4=CCCCC4)ccc23)c(C)c1 | inactive: 100% |
| CCOc1ccc(S(=O)(=O)NCC(c2ccc(N(C)C)cc2)N2CCCC2)cc1 (configuration not stated) | inactive: 94% |
| CCOc1ccc(-c2nnc(SCC(=O)Nc3ccccc3C(F)(F)F)o2)cc1 | inactive: 53% |

| SMILES | survival |
| --- | --- |
| Cc1ccc(N2C(=O)C(CC(=O)Nc3ccc(F)cc3)N(CCC3=CCCCC3)C2=O)cc1 (configuration not stated) | inactive: 71% |
| COCCCNC(=O)c1cn(CC(C)C)c(=O)c2c1c1ccccc1n2C | inactive: 84% |
| CCOc1ccc(OCC)c(NC(=O)c2nnn(Cc3cc(Br)ccc3OC)c2N)c1 | inactive: 72% |
| CC(=O)c1ccc(N2CCN(C(=O)C3CCN(S(=O)(=O)c4ccc(Br)s4)CC3)CC2)cc1 | inactive: 128% |
| COCCn1c(CNC(=O)c2cccc(N(C)C)c2)nc2cccnc21 | inactive: 65% |
| COc1cc(OC)c(NS(=O)(=O)c2cc3c(cc2C)NC(=O)CO3)cc1Cl | inactive: 86% |
| Cc1ccc(NC(=O)c2nc(S(C)(=O)=O)ncc2N(Cc2ccco2)Cc2ccccc2F)c(C)c1 | inactive: 84% |
| CCC(C(=O)NC1CCCC1)N(C(=O)c1snc(C(N)=O)c1N)c1ccccc1 (configuration not stated) | inactive: 98% |
| Cc1nc2scc(C)n2c(=O)c1S(=O)(=O)Nc1cccc(O)c1 | inactive: 84% |
| NCCC(=O)N1c2ccccc2Sc2ccc(Cl)cc21 | inactive: 104% |
| CCN(Cc1ccccc1)C(=O)CCS(=O)(=O)c1cc2c(cc1Cl)NC(=O)CO2 | inactive: 85% |
| Cc1ccc(C)c(NC(=O)Nc2nnc(N(CC(C)C)CC(C)C)s2)c1 | inactive: 100% |
| CCN1C2OC(C3OC4C(O3)N(CC)S(=O)(=O)N4CC)OC2N(CC)S1(=O)=O (configuration not stated) | inactive: 96% |
| CCOC(=O)c1c(C)[nH]c(C)c1S(=O)(=O)N1CCC(C(=O)N2CCN(c3cccc(C)c3)C(C)C2)CC1 (configuration not stated) | inactive: 126% |
| CCOC(=O)c1ccc(CN(Cc2ccc(F)cc2)S(=O)(=O)c2ccc(F)cc2)cc1 | inactive: 68% |
| O=C(Nc1ccc(C(F)(F)F)cc1)c1cc(S(=O)(=O)NC2CCCCCC2)ccc1F | inactive: 19% |
| CCCOc1ccc(C2c3c(oc4ccccc4c3=O)C(=O)N2c2ccc(C)cn2)cc1OCC (configuration not stated) | inactive: 71% |
| CCOc1cccc2sc(NC(=O)c3ccc(S(=O)(=O)N4CCCc5ccccc54)cc3)nc12 | inactive: 88% |
| Cc1ccccc1S(=O)Cc1ccc(C(=O)NC2CCCCCC2)o1 (configuration not stated) | inactive: 73% |
| Cc1ccc(CCNC(=O)c2ccc3c(=O)n(-c4ccc(C)cc4)c(=O)[nH]c3c2)cc1 | inactive: 79% |
| O=C(CNS(=O)(=O)c1cccs1)N1CCN(c2ccccc2Cl)CC1 | inactive: 60% |
| COc1ccc2oc(=O)c(-c3nc(-c4cc(OC)c(OC)c(OC)c4)no3)cc2c1 | inactive: 97% |

| SMILES | survival |
| --- | --- |
| Cc1ccc2c(CNCc3cccc(Cl)c3)c(C(=O)O)n(Cc3ccc(F)cc3Cl)c2c1 | inactive: 67% |
| Cc1cc2oc(C(=O)Nc3sc4c(c3C(=O)NCc3ccco3)CCC4)cc(=O)c2cc1C | inactive: 79% |
| Cc1ccc(C(=O)Nc2ccc3nc(SCC(=O)N4CCc5ccccc54)sc3c2)cc1 | inactive: 90% |
| O=C(NC1CCCCCC1)c1ccc(Cl)c(S(=O)(=O)N2CCOCC2)c1 | inactive: 95% |
| O=C(Cn1cc(SCc2cccc(F)c2)c2ccccc21)N1CCCC1 | inactive: 79% |
| COc1ccc(N2CCN(C(=O)c3cnc(N4CCCC4)nc3C)CC2)cc1 | inactive: 70% |
| CSc1ccc(CNC(=O)CCn2ccc3cc(S(=O)(=O)N4CCC(C)CC4)ccc32)cc1 | inactive: 78% |
| Cc1c(Cl)cccc1NC(=O)N1CCC(CN2CCCC2)CC1 | inactive: 84% |
| CC(Oc1ccccc1)c1nnc(N)s1 (configuration not stated) | inactive: 106% |
| COc1cccc(-n2nnc3c(sc4nc(C)cc(C)c43)c2=O)c1 | inactive: 113% |
| O=C(NN1CC(=O)N(C2CCCC2)C1=O)C(c1ccccc1)c1ccccc1 | inactive: 111% |
| CC1=C(c2ccc(C)cc2)S(=O)(=O)N(Cc2ccc(C(=O)NCc3cccc(C)c3)cc2)C1=O | inactive: 93% |
| CCC(Sc1nc2ccccc2c2nc(CCc3c(C)n[nH]c3C)nn12)C(=O)Nc1ccc(F)cc1 (configuration not stated) | inactive: 71% |
| COc1ccccc1CNS(=O)(=O)c1ccc2[nH]c3c(c2c1)CCCCC3 | inactive: 117% |
| O=C(NCc1ccccc1Br)C1CCCN(C(=O)N2CCOc3ccccc32)C1 (configuration not stated) | inactive: 85% |
| COCCCNC(=O)Cn1c(=O)n(Cc2ccc(C(=O)NCc3ccc(C)cc3)cc2)c(=O)c2ccccc21 | inactive: 72% |
| Cc1ccc(NC(=O)CSc2nc(C)c(Cc3ccccc3)c(=O)[nH]2)cc1 | inactive: 57% |
| COC(=O)c1ccc(NC(=O)CSc2nc3ccc(OC)cc3[nH]2)cc1 | inactive: 154% |
| O=C(Nc1sc2c(c1C(=O)Nc1ccccc1Cl)CCCC2)c1ccccc1F | inactive: 56% |
| COc1ccc(CCNC(=O)CN(c2ccccc2OC)S(=O)(=O)c2ccc(C)cc2)cc1 | inactive: 95% |
| COC(=O)c1c(NC(=O)c2cc(=O)c3ccc(C)c(C)c3o2)sc2c1CCCC2 | inactive: 85% |
| COc1ccc(CCNC(=O)Cc2c(C)c3c(cc(C)c4c(C)coc43)oc2=O)cc1 | inactive: 98% |

| SMILES | survival |
| --- | --- |
| COc1ccc(-c2cc3nc(-c4ccccc4)cc(C(F)(F)F)n3n2)cc1 | inactive: 84% |
| CCNC1CC(=O)N(c2ccc(C(=O)OCC)cc2)C1=O (configuration not stated) | inactive: 111% |
| Cc1ccc(NC(=O)CN2C(=O)CSc3ccc(S(=O)(=O)N4CCCC4)cc32)cc1F | inactive: 99% |
| COC(=O)c1cc(NC(=O)c2oc(=O)c3ccccc3c2-c2ccccc2)cc(C(=O)OC)c1 | inactive: 71% |
| Cc1ccc(NC(=O)c2c(NC(=O)c3ccco3)sc3c2CCC(C(C)(C)C)C3)c(C)c1 (configuration not stated) | inactive: 118% |
| CCc1ccc(NC(=O)c2cc(S(=O)(=O)NC3CCCC3)ccc2F)cc1 | inactive: 129% |
| COc1cc(OC)c(NC(=O)c2nnn(Cc3ccc(C)cc3)c2N)cc1Cl | inactive: 90% |
| COc1ccc(Br)cc1CNC(=O)Cn1c(=O)c2cccn2c2ccc(F)cc21 | inactive: 85% |
| O=C(Cn1ncc2c3ccccc3n(Cc3ccc(Cl)cc3)c2c1=O)N1CCCCCC1 | inactive: 82% |
| O=C(Cc1ccc(F)cc1)NC1CC(=O)N(c2ccc3c(c2)OCCO3)C1 (configuration not stated) | inactive: 73% |
| COc1cccc(-c2cn3c(n2)sc2cc(C(=O)NC4CCCCCC4)ccc23)c1 | inactive: 78% |
| CC1Cc2ccccc2N1C(=O)C1CCN(S(=O)(=O)c2ccc(-n3cnnn3)cc2)CC1 (configuration not stated) | inactive: 101% |
| CCC(C)c1ccc(OCC(=O)Nc2cccc(-c3nc4ncccc4o3)c2)cc1 (configuration not stated) | active: 6% |
| CCOc1ccc(NC(=O)c2oc3ccccc3c2NC(=O)Cc2ccc(F)cc2)cc1 | inactive: 89% |
| Cc1ccccc1Cn1cc(CCC(=O)NC(C)c2ccccc2)c2ccccc21 (configuration not stated) | inactive: 84% |
| Cc1cc(C)c2oc(-c3cccc(NC(=O)c4ccc(Br)o4)c3)nc2c1 | inactive: 45% |
| O=C(NCC(c1cccs1)S(=O)(=O)c1cccs1)c1ccccc1F (configuration not stated) | inactive: 70% |
| Cc1ccccc1NC(=O)CCC(=O)N1CCSc2ccccc21 | inactive: 90% |
| Cc1ccc(S(=O)(=O)N(CC(=O)Nc2ccc(C(C)C)cc2)Cc2ccccc2)cc1 | inactive: 76% |
| CC(=O)N1c2ccc(S(=O)(=O)NCC3CCC(C(=O)NC(C)(C)C)CC3)cc2CC1C (configuration not stated) | inactive: 97% |
| Clc1ccccc1N1CCN(c2ncnc3c2c(-c2ccccc2)cn3-c2ccccc2)CC1 | inactive: 99% |
